# Reference: PubChem BioAssay AID686978 (National Center for Advancing Translational Sciences (NCATS), 2013)
# The campaign covered roughly 420,000 compounds. About 64,000 (15%) were called active. The inconclusive results got no clear call from the source; some entries with a clear call stand among them for comparison. Calls come from the whole dose curve; as a rule, active = well fitted inhibition curve with a large enough effect; inconclusive = small, poorly fitted or top-dose-only effect; inactive = flat fitted curve, though single readings scatter. Potencies of inconclusive entries are left out as doubtful fits.
# Test: qHTS for Inhibitors of human tyrosyl-DNA phosphodiesterase 1 (TDP1): qHTS in cells in absence of CPT; note: nearly all actives have a fitted effect of over 55% in size
# Settings: DT40 Tdp1-/- hTDP1 cells, no CPT, ATP luminescence, 48 h; activity change, negative = growth inhibition: at 46.2 µM (top of the series) unless noted
# Method in brief: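 Compound effects on proliferation are scored in DT40 Tdp1-/-;hTDP1 cells in the absence of CPT. ATP levels (CellTiter-Glo luminescence) are recorded after a ≥48 hr, 37 °C incubation.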
# % is set by controls: 0 for no effect and ±100 for the full control effect; potency is the fitted concentration of half-maximal effect; tags give direction and shape of the fitted curve.
Structure (SMILES),Potency,"activity change, negative = growth inhibition"
CN(c1ccccc1)S(=O)(=O)c1cc(C(=O)Nc2nc3ccccc3[nH]2)ccc1Cl,"inconclusive [inhibitor, single point]",
CC1=N/C(=C\c2ccc([N+](=O)[O-])cc2)C(=O)N1c1ccc(Cl)cc1,"inconclusive [inhibitor, partial curve, poor fit]",
CN(c1ccccc1)S(=O)(=O)c1cccc(C(=O)NC2CC(C)(C)NC(C)(C)C2)c1,,inactive: -15.4%
CCCC(=O)Nc1ccc(-c2nc3ncccc3o2)cc1,,inactive: -11%
CC1(C(=O)Nc2ccc3c(c2)OCCO3)CN(S(C)(=O)=O)CC(=O)N1CCCN1CCOCC1 (stereo unspecified),,inactive: 3.06%
O=C1CC(C(=O)Nc2ccc(O)c(C(=O)O)c2)C(c2ccccc2)O1 (stereo unspecified),,inactive: -2.92%
COc1ccccc1Nc1cc(C(=O)NCCCN2CCOCC2)c2ccccc2n1,"inconclusive [inhibitor, single point]",
O=c1[nH]c2cc3ccccc3cc2nc1-c1nnnn1Cc1ccccc1,active: 23.1 µM,
COc1cccc(COC(=O)Cc2ccc(S(=O)(=O)N3CCOCC3)s2)c1OC,,inactive: 4.76%
COc1ccccc1NC(=O)C(C)OC(=O)/C=C/c1ccc2ccccc2n1 (stereo unspecified),"inconclusive [inhibitor, single point]",
CCO[C@@H]1OC(C(=O)N2CCCCCCC2)=C[C@H](c2csc3ccccc23)[C@H]1CCCO,active: 23.1 µM,
Cc1nnc(SCc2cnc(-c3ccc(C(C)C)cc3)s2)n1C,,inactive: 7.25%
COc1ccccc1N1CCN(C(=O)c2ccc3[nH]c4c(c3c2)CCCC4)CC1,"inconclusive [inhibitor, single point]",
Cc1ccc(C)c(-c2cc(C(=O)NN3CCOCC3)c3ccccc3n2)c1,"inconclusive [inhibitor, full curve]",
O=C(NCCNC(=O)c1cc(OCC(F)(F)F)ccc1OCC(F)(F)F)Nc1ccc(OC(F)(F)F)cc1,active: 23.1 µM,
Cc1cc(NC(=O)CSc2nnc(-c3ccco3)n2Cc2ccccc2)no1,,inactive: -22.1%
COc1cc([N+](=O)[O-])cc(/C=N/NC(=O)Cn2nccc2C)c1O,"inconclusive [inhibitor, single point]",
CC(C)NC[C@@H](O)COc1ccc(COCCOC(C)C)cc1,,inactive: -12.6%

Structure (SMILES),Potency,"activity change, negative = growth inhibition"
C=CCN(c1cccc(C(F)(F)F)c1)S(=O)(=O)c1cccc(C(=O)OCC(=O)NC)c1,"inconclusive [inhibitor, partial curve]",
CC(C)C(=O)NC(c1ccc([N+](=O)[O-])cc1)c1c(O)ccc2ccccc12 (stereo unspecified),"inconclusive [inhibitor, single point]",
NC(N)=NN=C1c2ccccc2-c2ccccc21,"inconclusive [inhibitor, partial curve]",
CN(CC1CCCO1)S(=O)(=O)c1ccc(C(=O)N2CCN(c3ccccc3)CC2)cc1 (stereo unspecified),,inactive: 3.89%
COc1cccc(Cn2c(=O)c(-c3ccc(F)cc3)nc3cnc(N(C)C)nc32)c1,,inactive: 8.53%
O=c1c2c3c(sc2[nH]c(=S)n1Cc1ccco1)CCC3,,inactive: 27%
CCCNC(=O)c1cc(C2CCCCN2S(=O)(=O)c2ccc(C#N)cc2)on1 (stereo unspecified),,inactive: -5.54%
Cc1ccnc2c(N3C(=O)C4C5c6ccccc6C(c6ccccc65)C4C3=O)cccc12 (stereo unspecified),active: 16.4 µM,
COc1ccc(OCc2ccc(-c3nc4ccccc4c(=O)n3N)o2)cc1,"inconclusive [inhibitor, single point]",
Cc1ccc(CSc2nc3ccc(NC(=O)COc4ccccc4)cc3s2)cc1,"inconclusive [inhibitor, full curve]",
CN(c1ccccc1)S(=O)(=O)c1nnc(NC(=O)COc2ccccc2F)s1,"inconclusive [inhibitor, single point]",
CCCC[N+](CC#CCO)(CC#Cc1ccccc1)CCCC,active: 9.2 µM,
O=C(COC(=O)Cc1c[nH]c2ccccc12)Nc1cc(S(=O)(=O)N2CCOCC2)ccc1Cl,"inconclusive [inhibitor, single point]",
COc1ccccc1NC(=O)CCn1c(=O)c2cccn2c2ccccc21,active: 23.1 µM,
CCOC(=O)c1ccc(N2C(=O)c3[nH]nc(-c4ccc(C)cc4)c3C2c2cccc(F)c2)cc1 (stereo unspecified),"inconclusive [inhibitor, single point]",
O=C(CSCc1ccccc1)NNC(=S)Nc1cccc(Cl)c1Cl,"inconclusive [inhibitor, partial curve]",
CCOC(=O)c1cnc(SC2CC(=O)N(c3cccc(OC)c3)C2=O)nc1N (stereo unspecified),"inconclusive [inhibitor, single point]",
Cc1cc(C(O)c2ncc(-c3ccc(Cl)cc3)[nH]2)ccc1F (stereo unspecified),"inconclusive [inhibitor, single point]",
